According to PubChem BioAssay AID1347077 (National Center for Advancing Translational Sciences (NCATS), 2019):
Screen size: about 44,000 compounds; fewer than 10 were called active. This list was built around the results that the source calls inconclusive (neither active nor inactive); the mix of calls is not that of the screen. The call rests on the fitted dose curve; in most records, active means well fitted activation curve with a large enough effect; inconclusive means small, poorly fitted or top-dose-only effect, or another doubt; inactive means no such curve, though single readings can be large or run the other way. No potency is given beside an inconclusive call; the fits are too rough.
Potency means the concentration at half of the fitted maximal effect; tags describe the fitted curve by direction and shape.
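Wherever activation is given: 0% = DMSO and full agonism = EC100 isoproterenol or metaproterenol.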

What follows are compounds tested against Beta-2 adrenergic receptor (Homo sapiens) (UniProt P07550) (assay: qHTS assay of beta-arrestin-biased ligands of beta2-adrenergic receptor: NCGC Sytravon Library Screen). Conditions: HTLA Tango cells, beta-arrestin recruitment, luciferase luminescence, 18 h; series mostly up to 46.1 µM; activation: at the top concentration.
UniProt P07550, sequence (P07550 whole entry, looked up): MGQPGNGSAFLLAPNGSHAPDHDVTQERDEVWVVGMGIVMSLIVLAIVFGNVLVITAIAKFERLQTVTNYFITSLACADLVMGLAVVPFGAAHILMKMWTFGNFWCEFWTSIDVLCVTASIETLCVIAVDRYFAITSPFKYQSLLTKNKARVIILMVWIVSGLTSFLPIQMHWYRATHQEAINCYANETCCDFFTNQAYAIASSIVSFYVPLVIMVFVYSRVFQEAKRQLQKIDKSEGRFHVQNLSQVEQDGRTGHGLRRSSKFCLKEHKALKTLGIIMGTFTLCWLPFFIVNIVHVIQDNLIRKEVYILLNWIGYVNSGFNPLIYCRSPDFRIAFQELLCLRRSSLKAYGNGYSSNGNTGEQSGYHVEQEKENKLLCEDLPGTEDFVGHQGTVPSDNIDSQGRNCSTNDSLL
Procedure, shortened: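 Tango cells (recombinant beta2-AR, beta-arrestin, tTA-driven luciferase), 1500/well in DMEM 1% FBS, treated 18 h at 37 °C with compounds up to 46 µM; luciferin mix added, luminescence read after 15 min; %activity curves fitted and curve-classed.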
In the case of Cc1ccc(C)c(NC(=O)CSc2nccn2-c2cccc(C)c2C)c1, the Potency is reported as inconclusive [activator, single point].
O=C(NCCc1ccccc1)c1cc(Nc2ccccc2)nc2ccccc12 was tested, and the “activation” value was inactive: 1.57%.
In the case of Cc1cc2c(n1-c1ccc(C(=O)NCCc3ccc(Cl)cc3)cc1)CCCC2, the Potency is reported as inconclusive [activator, single point].
With O=C(NCCc1ccccc1)c1nn(-c2ccccc2F)nc1CO the “activation” value was inactive: -1.8%.
O=C(NCc1ccc(F)cc1)c1c2c(nc3ccccc13)C(=O)N(C1CCCCC1)C2 was tested, and the Potency was inconclusive [activator, single point].
With COc1ccc(NC(=O)/C=C\C(=O)N(c2ccc(C(C)C)cc2)C(C(=O)NCc2ccco2)c2ccc(C)cc2)cc1 (stereo not drawn) the Potency was inconclusive [activator, full curve].
In the case of COc1ccc(N2CCN(C(=O)CSc3nc(-c4ccc(C(C)C)cc4)no3)CC2)cc1, the Potency is reported as inconclusive [activator, partial curve, poor fit].
For CCOc1cc(C2c3c(-c4cc(C)ccc4O)n[nH]c3C(=O)N2CCCOC(C)C)ccc1O (stereo not drawn), the Potency was inconclusive [activator, single point].
In the case of CCOc1ccc(CNC(=O)CCC(=O)N2CC3CCCN3c3ccccc32)cc1 (stereo not drawn), the Potency is reported as inconclusive [activator, single point].
With O=C(COc1ccc(Br)cc1Br)Nc1ccc(S(=O)(=O)Nc2ncccn2)cc1 the Potency was inconclusive [activator, partial curve, poor fit].
COc1cccc(Cc2nc3ccccc3nc2SCC(=O)NCCc2ccccc2)c1 was tested, and the “activation” value was inactive: -0.232%.
For COc1ccc(CCNC(=O)Cc2c(C)c3cc4c(C(C)(C)C)coc4c(C)c3oc2=O)cc1OC, the Potency was inconclusive [activator, single point].
For CC(C)c1ccc(C2Sc3ccccc3NC3=C2C(=O)c2ccccc23)cc1 (stereo not drawn), the “activation” value was inactive: 0.402%.
For COc1ccc(NC(=O)C2CCCN(S(=O)(=O)c3ccc(F)cc3)C2)cc1 (stereo not drawn), the Potency was inconclusive [activator, single point].
In the case of Cc1ccc(NC(=O)/C(C#N)=C/c2ccc(C(C)C)cc2)cc1C, the “activation” value is reported as inactive: 0.446%.
In the case of Cc1ccn2c(Nc3ccc4c(c3)OCCO4)c(-c3cccs3)nc2c1, the “activation” value is reported as inactive: -1.56%.
For CC(C)c1ccc(C2c3c(-c4ccccc4O)n[nH]c3C(=O)N2Cc2ccncc2)cc1 (stereo not drawn), the Potency was inconclusive [activator, single point].
COCCNC(=O)Cn1c(=O)n(CCCCCC(=O)NCc2ccc3c(c2)OCO3)c(=O)c2sccc21 was tested, and the Potency was inconclusive [activator, partial curve, poor fit].
